# Results: the supplement of paper PMC3334620
# Over roughly 33,000 sequences, “E-score (-0.5 to 0.5)” has its median near -0.016; the highest 2% begin near 0.31. The list shows a part of the results.
# Biological target: Cst6 (UniProt P40535)
# Assay: PBM E-score (8-mer binding enrichment) (E-score (-0.5 to 0.5)); higher = stronger / more preferred TF binding; most listed sequences are background and not binding sites
# Conditions: protein concentration: 200 nM; construct: GST-DNA-binding domain
# Summary of the method: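 Yeast transcription factors, full-length or as DNA-binding domains, were expressed with a GST tag using PURExpress in vitro transcription/translation. At about 100-200 nM they were applied to universal all-10-mer Agilent arrays, double-stranded by primer extension on fresh or once-stripped slides. Fluorescent anti-GST detected bound protein, and masliner normalised the scans. E-scores for ungapped eight-base words, pooled with reverse complements, came from the Universal PBM Analysis Suite.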
row,Sequence,PBM E-score
1,GTATTTCA,0.196
2,AGCTCGGA,-0.261
3,ACGGATTC,0.0332
4,TATGCGGA,-0.00967
5,AGACGGGC,-0.128
6,AAGTCTCT,-0.212
7,ATCTACAG,0.0349
8,CAATGTGA,0.242
9,GAGCTCAC,0.046
10,GCTGGCCA,-0.231
11,CCTACTTA,0.00339
12,ACAGACAA,0.206
13,ACCAAGGT,-0.0517
14,TCTGTAAA,0.0688
15,ACCATCCT,0.00882
16,AAATATCG,0.166
17,CGCTGGGA,-0.331
18,AGTGTTGG,-0.0779
19,GAGGCGCC,0.171
20,CGTTGTTA,0.228
21,CGAGTACG,-0.0588
22,CAACTACG,0.0911
23,TAGGAAGA,-0.256
24,CACCCCAC,0.0277
25,AGGATACT,-0.0963

row,Sequence,PBM E-score
1,ACGCATTA,0.126
2,AGAATAGA,0.0439
3,ACCAGCAT,-0.104
4,ATTTAGGG,0.13
5,CCGTCACC,0.411
6,ACATCAGG,0.163
7,AGAGGGCT,-0.381
8,AACGTTCT,-0.0688
9,ATGCCATA,0.118
10,ACGGAAGT,0.0136
11,CGGATGTC,-0.0678
12,TCGACAGA,-0.146
13,CGCGACCC,-0.0916
14,CAATTCTG,-0.0283
15,TGCTAAAA,0.0547
16,GCTGAATA,0.0801
17,AATGGTCA,0.106
18,AAAAAAGC,0.177
19,CACTATCC,-0.0761
20,CCGATGGC,-0.184
21,GATCGGCA,-0.00629
22,GATTGCTA,-0.0542
23,AGCCCTTG,-0.222
24,TAGATCGA,0.0266
25,GGGAGAAC,-0.274

row,Sequence,PBM E-score
1,ATTGTTTG,0.245
2,TCAGTTCA,0.0549
3,GTGTGAAC,-0.0473
4,AACCCTGT,-0.169
5,AAGGTAAC,0.142
6,ACTTGCAA,0.122
7,TGGGCACA,0.135
8,ATGGGCAA,-0.201
9,CCACTGCC,-0.146
10,CTCAAGAA,-0.0835
11,GGATGAAA,0.11
12,CATGGAAC,-0.192
13,CTTCTAGC,-0.323
14,AACGCAAA,0.166
15,ATAACGCG,0.105
16,GCATTAAA,0.163
17,CGGCGTAC,0.165
18,GATAGCGC,-0.152
19,AGATGGCC,-0.0799
20,ACTACTCG,0.0537
21,CCGAAGGC,-0.236
22,ACAAAAAT,0.279
23,AACACCAT,0.135
24,AGAAGTGA,0.0777
25,ATCTTAGC,-0.013

row,Sequence,PBM E-score
1,ATGATCAC,0.186
2,AACATATT,0.173
3,GGTCATTA,0.178
4,CACCGTGA,0.00413
5,ACGCCGCT,0.233
6,ACCCGCAG,0.0209
7,AAACCTAC,0.0437
8,CATAGTCC,-0.105
9,AGAACCAT,0.114
10,GATCTGCA,-0.168
11,TAATTTAA,0.287
12,ACGCAAGC,0.0892
13,TCTTCTAA,0.0328
14,AGCAGTTA,0.0215
15,CTTCTCTA,-0.169
16,AATACCTC,0.0348
17,AAGCCGCC,-0.157
18,ACTAAGGG,-0.247
19,AGAGTACC,-0.135
20,GCACCACA,-0.0967
21,TAACGAGA,0.159
22,AGCACCAG,-0.0966
23,CCGCCTCC,-0.227
24,AAGTTCTA,-0.172
25,CGACCTTA,0.0749

row,Sequence,PBM E-score
1,AATAGGTA,0.0621
2,AAAACCAT,0.144
3,AGATGTGC,-0.0582
4,TTATTGAA,0.128
5,CGGTGGCA,-0.151
6,GCCGCTAA,0.0534
7,AGCTGTAC,-0.285
8,ATTCATGG,0.0757
9,CAATTCTA,0.069
10,ACCTGCAA,-0.179
11,CGCCAAGA,-0.161
12,ATACATGA,0.176
13,CCCATGGA,-0.219
14,CATTGAAA,0.241
15,CGCTTGTA,0.0352
16,GAGTCACC,0.0602
17,ACCTAGGA,-0.167
18,GCCGGCAA,-0.108
19,AAAGGGAG,-0.152
20,CTATTGTA,0.133
21,ACACTGGG,-0.312
22,ATATCTTA,0.114
23,ACGCCAGG,-0.193
24,AACTTACT,-0.041
25,GGAATGCC,0.0445

row,Sequence,PBM E-score
1,TCATCTCA,0.159
2,CCGATGTC,-0.0711
3,CAGCTAAC,-0.19
4,TACGTTAA,0.189
5,AGAATCTC,-0.0515
6,CGTACCCA,0.0246
7,GCTCATTA,0.0545
8,ATTACGGC,0.266
9,GTTGGAAA,0.0394
10,CATTTGCG,0.258
11,AGTGCGAA,-0.154
12,CTAGCCAA,0.0159
13,AATACTCT,0.0681
14,ATCCCTCA,0.0332
15,ACGTCCAG,-0.229
16,AGAAGACT,-0.23
17,ATAATTTA,0.304
18,CAGAGTTA,0.207
19,CGACCGTA,-0.236
20,ACGATTGA,0.125
21,CCACCCGA,-0.0893
22,GGGTTCCA,-0.312
23,ACTGCAGG,-0.194
24,GAGCCCTC,-0.323
25,GTGCTATA,0.0846

row,Sequence,PBM E-score
1,CTTCAAGC,-0.0666
2,AGGCATAT,0.182
3,ATAGGAAC,-0.0415
4,GGTATACA,-0.0479
5,CCGGCCCG,-0.238
6,AAACAGAG,0.123
7,ATACCTTG,-0.0121
8,AAATCTAT,0.213
9,GCCCATAC,-0.0375
10,TGGCGGAA,-0.201
11,TCCCCCAA,-0.29
12,ACCGGAAA,-0.0603
13,GGATTTAA,0.119
14,CTGTGATC,-0.00162
15,CAGAGCAA,-0.0363
16,CCGGAACC,-0.247
17,CATGACTC,0.0297
18,CTGGTGCA,-0.129
19,GATTATAC,0.112
20,AAGCCAGG,-0.174
21,ATCCCCGC,-0.166
22,CTACTCGC,-0.103
